Measurements from PubChem BioAssay AID624417 (National Center for Advancing Translational Sciences (NCATS), 2012).
The campaign covered roughly 410,000 compounds. About 6,400 (1.6%) were called active. Inconclusive results, whose numbers are uncertain, are shown with a selection of clear calls. Calls come from the whole dose curve; as a rule, active = well fitted inhibition curve with a large enough effect; inconclusive = small, poorly fitted or top-dose-only effect; inactive = no such curve, though single readings can be large or run the other way. Potencies of inconclusive entries are left out as doubtful fits.

Each compound was assayed against Glucagon-like peptide 1 receptor (Homo sapiens) (UniProt P43220) (assay: qHTS of GLP-1 Receptor Inverse Agonists (Inhibition Mode)). Conditions: HEK293 GLP-1R CRE-luciferase, luminescence, 24 h, GLP-1R form is constitutively active; activity change, negative = inhibition: at 38.3 µM (top of the series) unless noted.
How it was run: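 Stable HEK293 clone (constitutively active GLP-1R + cAMP-response luciferase); 200 cells/uL plated, 12 h pre-culture, compound 24 hr, 37 deg C/5% CO2; detection reagent 12 min RT; luminescence.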
% is set by controls: 0 for no effect and ±100 for the full control effect; potency is the fitted concentration of half-maximal effect; tags give direction and shape of the fitted curve.
Note: nearly all actives have a fitted effect of over 55% in size.

Sequence of UniProt P43220 (P43220 whole entry, looked up): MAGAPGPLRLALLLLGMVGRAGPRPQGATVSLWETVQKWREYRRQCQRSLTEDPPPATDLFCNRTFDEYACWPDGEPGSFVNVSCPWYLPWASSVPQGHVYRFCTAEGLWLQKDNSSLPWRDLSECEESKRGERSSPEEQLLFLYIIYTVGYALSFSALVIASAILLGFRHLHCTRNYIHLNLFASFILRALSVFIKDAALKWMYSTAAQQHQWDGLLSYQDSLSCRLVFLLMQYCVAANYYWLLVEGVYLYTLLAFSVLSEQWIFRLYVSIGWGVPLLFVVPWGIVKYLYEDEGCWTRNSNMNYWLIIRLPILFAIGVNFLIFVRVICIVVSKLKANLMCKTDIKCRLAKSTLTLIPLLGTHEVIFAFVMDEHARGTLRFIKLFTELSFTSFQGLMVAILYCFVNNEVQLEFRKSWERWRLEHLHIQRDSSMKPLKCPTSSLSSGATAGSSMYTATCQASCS

Row | SMILES | Potency | activity change, negative = inhibition
1 | N#Cc1ccccc1NC(=O)CN(Cc1ccccc1)Cc1ccccc1 | active: 7.08 µM | 
2 | N#CC1=C(N)C(C#N)(C#N)[C@H](c2ccsc2)[C@H]2COCC=C12 | inconclusive [inhibitor, partial curve, poor fit] | 
3 | Cc1cc(C)c2c(-n3cccc3)c(NC(=O)OC(C)C)sc2n1 | inconclusive [inhibitor, partial curve, poor fit] | 
4 | COc1ccc(NS(=O)(=O)c2cccc(-c3n[nH]c(=S)n3Cc3ccccc3)c2)cc1 |  | inactive: -6.77% [at 0.307 µM]
5 | Cc1nc(NC2=NCN(CCCN3CCOCC3)CN2)nc2c(C)cccc12 | inconclusive [inhibitor, single point] | 
6 | CC(=O)CCc1oc2ccc(C)cc2c1-c1ccc(C)o1 | inconclusive [inhibitor, single point] | 
7 | Cc1ccc(N(CC(=O)NCc2ccccc2)C(=O)c2csnn2)c(C)c1 | inactive | 
8 | COCc1cc(S(=O)c2ccc(Cl)cc2)nc(C)n1 (stereo unspecified) | inconclusive [inhibitor, single point] | 
9 | O=C(O)c1ccc(NCc2nc3ccccc3n2Cc2ccccc2)cc1 | inactive | 
10 | C[C@@H](NC(=O)C(=O)c1c[nH]c2ccccc12)c1ccccc1 | inconclusive [inhibitor, single point] | 
11 | CCOC(=O)C1=CC[C@@H](c2ccc(OC)cc2)N(S(=O)(=O)c2ccc(C)cc2)[C@H]1CC | inconclusive [inhibitor, partial curve, poor fit] | 
12 | CNc1nc(NC)nc(-n2c(C(F)(F)F)nc3ccccc32)n1 | inconclusive [inhibitor, single point] | 
13 | CCOc1ccc(N2C(=O)CC(Sc3nnnn3-c3ccccc3)C2=O)cc1 (stereo unspecified) | inconclusive [inhibitor, single point] | 
14 | Cc1cccc(NC2(C(F)(F)F)N=C(c3ccccc3)NC2=O)n1 (stereo unspecified) | inconclusive [inhibitor, partial curve] | 
15 | COC(=O)c1cc2oc3ccccc3c2n1CC(=O)Nc1ccc(OC)c(OC)c1 | inactive | 
16 | CCCN1Cc2cccc(C(=O)Nc3ccc(CN4CCCC4)cc3)c2C1=O | inconclusive [inhibitor, single point] | 
17 | COc1ccc2[nH]c3c(c2c1)CCN1C(=O)N([C@@H](C)C(=O)NCc2ccccc2OC)C(=O)[C@]31C | inconclusive [inhibitor, single point] | 
18 | COc1ccc(OC)c(CNC(=O)c2ccc(Sc3ccc(Cl)cc3)c(NC(C)=O)c2)c1 | inactive | 
19 | O=C(Nc1ccc(Cl)cc1)c1cc(S(=O)(=O)N2CCCCC2)ccc1N1CCOCC1 | inconclusive [inhibitor, single point] | 
20 | CCN(c1ccc(Cl)cc1)S(=O)(=O)c1nnc(NC(=O)c2ccco2)s1 | inconclusive [inhibitor, partial curve] | 
21 | Cc1ccc2onc(CC(=O)N3CCN(c4ccc(Cl)cc4)CC3)c2c1 | inconclusive [inhibitor, single point] | 

Row | SMILES | Potency | activity change, negative = inhibition
22 | CN(C)Cc1ccccc1Sc1ccc(Br)cc1 | inconclusive [inhibitor, single point] | 
23 | COc1ccccc1CNC(=O)C1(C)CCN1Cc1ccc(OC(F)(F)F)cc1 (stereo unspecified) | inconclusive [inhibitor, single point] | 
24 | Nc1c(-c2cccc(Cl)c2)cnn1-c1cccc([N+](=O)[O-])c1 | inconclusive [inhibitor, single point] | 
25 | C=CCc1ccc(OCC(O)COc2ccc(CC=C)cc2OC)c(OC)c1 | inconclusive [inhibitor, partial curve, poor fit] | 
26 | Cc1ccccc1OCC(=O)NC1=NCCS1 | inconclusive [inhibitor, single point] | 
27 | Cc1ccc2c(c1)Cc1nc3ccccc3nc1-2 | inconclusive [inhibitor, full curve, poor fit] | 
28 | O=C1CC(c2nc3ccccc3n2CCC2CCCCC2)CN1c1ccccc1Cl (stereo unspecified) | inactive | 
29 | CCCC1CCC(c2ccc(C(N)=O)cc2)CC1 (stereo unspecified) | inactive | 
30 | C=C(C)CNC(=S)NNC(=O)CCn1c2ccccc2c2ccccc21 | inconclusive [inhibitor, partial curve] | 
31 | Cc1cccc(N2CCN(C(=O)CCCn3c(=O)[nH]c4ccsc4c3=O)CC2)c1C | inactive | 
32 | O=S(=O)(c1cccnc1)N1CCCC(Nc2ccc(F)c(F)c2)C1 (stereo unspecified) | inconclusive [inhibitor, partial curve, poor fit] | 
33 | Cc1ccc(NC(=S)NCCC(c2ccccc2)c2ccccc2)c(C)c1 | inconclusive [inhibitor, partial curve, poor fit] | 
34 | Cc1ccc(S(=O)(=O)N2CCC(C(=O)NCCC3=CCCCC3)CC2)c(C)c1 | inconclusive [inhibitor, partial curve, poor fit] | 
35 | Cc1ccc(S(=O)(=O)N2[C@@H](c3ccc(Br)cc3)C(C(=O)O)=CC[C@H]2c2ccc(C(C)C)cc2)cc1 | inconclusive [inhibitor, partial curve, poor fit] | 
36 | COc1ccc(NC(=O)CN(C)C(=O)c2ccc(-c3ccccc3Cl)o2)cc1 | inconclusive [inhibitor, partial curve] | 
37 | COc1ccc(CC(=O)N2CCN(c3cccc(C)c3C)CC2)cc1 | inconclusive [inhibitor, single point] | 
38 | COc1ccc(NC(=O)Nc2cccc3[nH]c([C@@H]4O[C@H](CO)[C@@H](O)[C@H](O)[C@H]4O)nc23)cc1OC1CCCC1 | inactive | 
39 | Cc1c(C(=O)Nc2ccc3oc(-c4cccnc4)nc3c2)oc2ccccc12 | inactive | 
40 | Cc1cc(S(=O)(=O)c2ccc([N+](=O)[O-])cn2)ccc1Br | inactive | 
41 | Cc1ccc2c(c1)nnn2C1CCN(CC(=O)N(c2ccccc2)c2ccccc2)CC1 | inconclusive [inhibitor, full curve, poor fit] | 
42 | CCOC(=O)c1c(-c2cccc([N+](=O)[O-])c2)csc1NC(=O)CCCOc1ccccc1OC | inconclusive [inhibitor, single point] | 

Row | SMILES | Potency | activity change, negative = inhibition
43 | Cc1cc(C)c(C#N)c(SCC2COc3ccccc3O2)n1 (stereo unspecified) | inconclusive [inhibitor, single point] | 
44 | Cc1ccc(S(=O)(=O)N2CCCC(c3nc(-c4ccc(C)o4)no3)C2)cc1 (stereo unspecified) | inconclusive [inhibitor, single point] | 
45 | COC(=O)[C@@]12C[C@@H](CC(=O)NCc3cccc(C(F)(F)F)c3)C(=O)N(Cc3ccc4c(c3)OCO4)C1=CCC(C)(C)C2 | inconclusive [inhibitor, single point] | 
46 | CC1CCCCN1S(=O)(=O)c1ccc(C(=O)N(CCCN(C)C)c2nc3cc4c(cc3s2)OCO4)cc1 (stereo unspecified) | inconclusive [inhibitor, single point] | 
47 | O=C(Nc1cccc(NC(=O)c2cncc(Br)c2)c1)c1cncc(Br)c1 | inconclusive [inhibitor, single point] | 
48 | CCCNC(=O)c1ccc(COc2ccc(Cl)cc2)o1 | inconclusive [inhibitor, single point] | 
49 | CCOC(=O)c1ccc(S(=O)(=O)Nc2ccccc2-c2nnn(CC)n2)cc1 | inconclusive [inhibitor, single point] | 
50 | O=C(NCC1COc2ccccc2O1)Nc1ccccc1F (stereo unspecified) | inconclusive [inhibitor, partial curve, poor fit] | 
51 | COc1cc(SC)ccc1C(=O)N1CCN(c2ccccc2OC)CC1 | inconclusive [inhibitor, partial curve] | 
52 | CCC1(c2ccc(F)cc2)NC(=O)N(CC(=O)N2CCN(S(=O)(=O)c3ccc(Cl)cc3)CC2)C1=O (stereo unspecified) | inconclusive [inhibitor, partial curve, poor fit] | 
53 | O=C(CN(C(=O)c1ccc(Cl)cc1Cl)N1C(=O)C2C3C=CC(C3)C2C1=O)c1ccc(F)cc1 (stereo unspecified) | inconclusive [inhibitor, single point] | 
54 | CCOC(=O)C(=Cc1ccccc1)C(=O)c1ccccc1 | inconclusive [inhibitor, partial curve, poor fit] | 
55 | CCN(C1=NS(=O)(=O)c2ccccc21)N(CC)S(=O)(=O)c1ccc(C)cc1 | inconclusive [inhibitor, partial curve, poor fit] | 
56 | CCOC(=O)[C@H]1[C@H]2COc3cc(OC)ccc3[C@@H]2N2C(=O)N(c3cccc(Cl)c3)C(=O)[C@@]12C | inconclusive [inhibitor, partial curve, poor fit] | 
57 | Cc1nc(Nc2ccccc2C(F)(F)F)sc1C(=O)N(C)C | inconclusive [inhibitor, single point] | 
58 | CC1CCCN(S(=O)(=O)c2ccc(NC(=O)Cn3nnc(-c4ccccc4F)n3)cc2)C1 (stereo unspecified) | inconclusive [inhibitor, single point] | 
59 | COc1ccc(C2C(=O)N(C3CCC(C)CC3)CC(=O)N2C2CCCCC2)cc1OC (stereo unspecified) | inactive | 
60 | Cc1ccc(C(=O)CCC(=O)NN2C(=O)NC3(CCCCC3)C2=O)cc1 | inconclusive [inhibitor, partial curve, poor fit] | 
61 | Brc1ccc2c(c1)[C@H]1OCC[C@H]1[C@@H](c1cccs1)N2 | inconclusive [inhibitor, partial curve, poor fit] | 
